Results reported in PubChem BioAssay AID1745845 (National Center for Advancing Translational Sciences (NCATS), 2022).
Among all 360,000 compounds or so, about 2,600 (0.72%) were called active. Inconclusive results, whose numbers are uncertain, are shown with a selection of clear calls. The call rests on the fitted dose curve; in most records, active means well fitted inhibition curve with a large enough effect; inconclusive means small, poorly fitted or top-dose-only effect; inactive means no such curve, though single readings can be large or run the other way. Where the call is inconclusive, the potency comes from a doubtful curve fit.
On the % scale 0 is the no-effect control and ±100 the full control effect; potency means the concentration at half of the fitted maximal effect; tags describe the fitted curve by direction and shape.

Assay: Primary qHTS for Inhibitors of ATXN expression; further: nearly all actives have a fitted effect of over 55% in size
Details: HEK-293 ATXN2-luciferase reporter, luminescence, 24 h; activity change, negative = inhibition: at 57 µM (top of the series)
Method in brief: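 ATXN2-luciferase reporter cells (luciferase flanked by upstream and downstream ATXN2 gene portions) were treated 24 h at 37 °C with compounds at up to 57 uM. SteadyGlo luminescence gave expression; GF-AFC fluorescence gave viability.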
With `CN1CC(=O)N/C1=N\C(=O)Nc1ccc2c(c1)N(C)C(=O)CS2` the Potency was “inactive”. For `O=C(NC1CCCC1)c1ccc(CSc2nc3ccncc3n2Cc2ccc(F)cc2)cc1`, the Potency was inconclusive: 28.2 µM [inhibitor, single point]. With `CN(C)CC(CCC(CN(C)C)C(O)(c1ccccc1)c1ccccc1)C(O)(c1ccccc1)c1ccccc1` (configuration not stated) the Potency was inconclusive: 20 µM [inhibitor, partial curve, poor fit]. With `CC(C)CCNC(=S)Nc1ccc([N+](=O)[O-])cc1` the Potency was inconclusive: 39.8 µM [inhibitor, single point]. In the case of `CCOC(=O)c1oc2ccc(CNC3CCCCC3)c(Cl)c2c1C`, the Potency was “inactive”. In the case of `C[C@@H]1CCC(=O)N(CC[C@H](Sc2ccc(Br)cc2)c2ccccc2)CC1`, the Potency was inconclusive: 25.1 µM [inhibitor, single point]. In the case of `O=C(CCCc1ccccc1)c1ccc2c(c1)OCCO2`, the Potency was active: 10 µM. With `COc1ccccc1Nc1c2c(nc3ccccc13)CCC2` the Potency was inconclusive: 14.1 µM [inhibitor, partial curve, poor fit]. For `CC1=NN(c2nc3ccccc3[nH]2)C(=O)C1Cc1ccccc1` (configuration not stated), the Potency was active: 10 µM. With `CCOC(=O)C1CCCN(C(=O)c2ccc3c(=O)n(Cc4ccccc4OC)c(=S)[nH]c3c2)C1` (configuration not stated) the Potency was inconclusive: 3.98 µM [inhibitor, partial curve]. In the case of `CC(C)c1nnc(NC(=O)c2nc(S(=O)(=O)Cc3ccccc3F)ncc2Cl)s1`, the Potency was active: 10 µM. For `COc1ccc(-c2noc(N3CCC(C(=O)Nc4ccccc4Cl)CC3)n2)cc1`, the Potency was inconclusive: 7.08 µM [inhibitor, partial curve, poor fit]. In the case of `FC(F)(F)c1cc(CCN2CCNC[C@@H]2CC2CCCCC2)cc(C(F)(F)F)c1`, the Potency was active: 22.4 µM. With `O=C(Nc1ccc(NC(=O)c2cccs2)cc1)c1ccc2c(c1)OCO2` the Potency was inconclusive: 39.8 µM [inhibitor, single point]. With `CC(=O)Nc1cc(-c2ccc(C(=O)N3CCOCC3)cc2)cn2c(-c3ccc(F)cc3)cnc12` the Potency was inconclusive: 25.1 µM [inhibitor, single point]. With `CC(=O)OCCNc1cc(Sc2nc3ccccc3[nH]2)c2nonc2c1[N+](=O)[O-]` the Potency was “inactive”. For `CC(C)[C@H](NC(=O)OC(C)(C)C)c1nnc(S(=O)(=O)Cc2c(F)cccc2Cl)o1`, the Potency was inconclusive: 39.8 µM [inhibitor, single point]. For `Nc1c(C(O)(C(F)(F)F)C(F)(F)F)cc(C(O)(C(F)(F)F)C(F)(F)F)c2ccccc12`, the Potency was inconclusive: 25.1 µM [inhibitor, single point]. In the case of `CCOC(=O)N(C)c1c(CC)nc2c(OCc3ccccc3C)cccn12`, the Potency was inconclusive: 39.8 µM [inhibitor, single point]. For `CNS(=O)(=O)CCc1ccc2[nH]cc(C3CCN(C)CC3)c2c1`, the Potency was inconclusive: 43.2 µM [inhibitor, partial curve, poor fit]. With `CCOC(=O)C1=C(c2ccccc2)NC(=O)NC1c1ccc(O)c(Cl)c1` (configuration not stated) the Potency was inconclusive: 20 µM [inhibitor, single point]. In the case of `CCOC(=O)c1ccccc1NC(=O)N(Cc1ccco1)C1CCN(C(C)=O)CC1`, the Potency was inconclusive: 3.16 µM [inhibitor, partial curve, poor fit]. With `CC1(C)C2CC=C(/C=N/NC(=O)c3ccccc3O)C1C2` (configuration not stated) the Potency was “inactive”. In the case of `COc1ccc(-c2cc3c(nn2)-c2ccccc2C3=O)cc1`, the Potency was inconclusive: 13.4 µM [inhibitor, partial curve, poor fit]. With `O=C(Nc1ccc(F)cc1F)c1cc(Cl)sc1Cl` the Potency was “inactive”. In the case of `O=c1cc(-c2ccccc2)oc2cc(O)ccc12`, the Potency was “inactive”. With `c1ccc2nc(-c3ccc(N4CCOCC4)cc3)ccc2c1` the Potency was active: 3.55 µM. For `O=C1c2ccccc2C(=O)c2c(/C=C/N3CCCCC3)ccnc21`, the Potency was inconclusive: 11.2 µM [inhibitor, partial curve, poor fit]. In the case of `CN(C(=O)c1cccc(NC(=O)Cc2ccc(NC(=O)C3CCCN(C(=O)CCc4ccccc4)C3)cc2)c1)C1CC1` (configuration not stated), the Potency was “inactive”. For `CC1C(=O)N(Cc2cn(CCC3OCCO3)nn2)CCS(=O)(=O)N1Cc1ccc(-c2ccc(Cl)c(Cl)c2)cc1` (configuration not stated), the Potency was inconclusive: 35.5 µM [inhibitor, single point]. With `O=C(CSc1n[nH]c(-c2ccccn2)n1)Nc1cccc(Cl)c1` the Potency was active: 10 µM. In the case of `C=C1C(=O)C=C[C@]2(C)C[C@@H]3OC(=O)[C@](C)(O)[C@H]3C[C@@H]12`, the Potency was active: 10 µM. For `O=C(Nc1ccccn1)c1cc(-c2cccnc2)nc2ccc(Br)cc12`, the Potency was inconclusive: 11.2 µM [inhibitor, partial curve]. In the case of `CC[n+]1c(/C=C/C=C/N(C(C)=O)c2ccccc2)sc2cc(OC)ccc21`, the Potency was active: 20 µM. In the case of `CCc1ccc(C(=O)COC(=O)c2cc([N+](=O)[O-])ccc2N2CCOCC2)cc1`, the Potency was inconclusive: 14.1 µM [inhibitor, partial curve, poor fit]. With `CCN(CC)CCn1c2ccccc2c2cnc(N=CN(C)C)c(C#N)c21` the Potency was inconclusive: 22.4 µM [inhibitor, single point]. In the case of `CC(C)c1nnc2n1N=C(c1ccc(Cl)cc1)CS2`, the Potency was “inactive”. With `COC(=O)CCCC(=O)NC1CCCN(C2Cc3ccccc3C2)C1` (configuration not stated) the Potency was “inactive”. With `O=C(Nc1ccccc1Cl)c1ccc2c(=O)n3c(nc2c1)CCC3` the Potency was “inactive”. For `COc1cc(C(=O)NCCCN2CCCC2=O)cc(Br)c1OCc1ccccc1`, the Potency was inconclusive: 22.4 µM [inhibitor, partial curve, poor fit]. In the case of `CN(C)c1ccc(C=Nc2ccccc2C(N)=O)cc1`, the Potency was inconclusive: 17.8 µM [inhibitor, single point]. With `O=C1CC(N2CCN(c3ccccn3)CC2)C(=O)N1CC(c1ccccc1)c1ccccc1` (configuration not stated) the Potency was “inactive”. With `Cc1ccc(C(=O)N(C)CC(=O)Nc2ccc(Cl)c(C(F)(F)F)c2)cc1S(=O)(=O)N1CCCCC1` the Potency was inconclusive: 39.8 µM [inhibitor, single point]. In the case of `COc1ccc(C(=O)c2cnc3ccc(C)cc3c2S(=O)(=O)c2ccccc2)cc1`, the Potency was inconclusive: 22.4 µM [inhibitor, partial curve]. With `COc1cc(OC)nc(Nc2nc(C(N)CCc3ccccc3)cs2)n1` (configuration not stated) the Potency was inconclusive: 39.8 µM [inhibitor, single point]. In the case of `Cc1cccc(CN2C(=O)CSc3ccc(C(=O)NC4CC4)cc32)c1`, the Potency was “inactive”. With `Cc1nc(Nc2nc3ccccc3o2)nc2c1CCC2` the Potency was inconclusive: 17.8 µM [inhibitor, partial curve, poor fit]. For `COc1cc(/C=N/O)ccc1OCc1ccc(C(=O)O)cc1`, the Potency was active: 0.708 µM. In the case of `CCC(C)Nc1nc(-c2cccc(OC)c2O)nc2ccccc12` (configuration not stated), the Potency was inconclusive: 39.8 µM [inhibitor, partial curve, poor fit]. For `CCc1ccc2occ(CC(=O)Nc3nnc(C)s3)c2c1`, the Potency was “inactive”. In the case of `COC(=O)C1=C(C)N(C)C(=S)N(C)C1c1ccc(OC)cc1` (configuration not stated), the Potency was inconclusive: 42.3 µM [inhibitor, single point]. With `COc1ccc(C(=O)/C=C/c2ccc(OCc3ccccc3)cc2)cc1CSCC(=O)O` the Potency was inconclusive: 39.8 µM [inhibitor, single point]. For `O=c1[nH]c(CN2CCN(c3ccccn3)CC2)nc2c(Br)cc(Br)cc12`, the Potency was inconclusive: 20 µM [inhibitor, partial curve, poor fit]. For `Cc1ccc(-c2cnc3c(Cl)c(C)nn3c2)cc1`, the Potency was inconclusive: 37.7 µM [inhibitor, single point]. For `CC(C)C[C@@H](C(=O)NC1CCN(Cc2ccccc2)CC1)N1C(=O)N2CCc3c([nH]c4ccccc34)[C@@]2(C)C1=O`, the Potency was inconclusive: 35.5 µM [inhibitor, single point]. For `COc1ccc(C2CC(c3ccccc3)=NN2C(=O)c2cccs2)cc1` (configuration not stated), the Potency was “inactive”. With `COc1cccc(C(=O)Nc2nnc(-c3ccc(F)cc3)o2)c1` the Potency was inconclusive: 35.5 µM [inhibitor, single point]. With `COc1ccc(CCNC(=O)c2cc(-c3cc(C)cc(C)c3O)n[nH]2)cc1OC` the Potency was inconclusive: 17.8 µM [inhibitor, partial curve, poor fit]. For `Cc1cc([N+](=O)[O-])ccc1-c1ccc(C2Nc3ccccc3C(=O)N2O)o1` (configuration not stated), the Potency was inconclusive: 12.6 µM [inhibitor, partial curve]. With `Cc1sc(N)nc1-c1ccccc1` the Potency was “inactive”. With `CC(C)=CC[C@@H](O)C1=CC(=O)c2c(O)ccc(O)c2C1=O` the Potency was inconclusive: 3.43 µM [inhibitor, full curve, poor fit]. In the case of `CCOc1ccccc1CN1CCCC(C(=O)c2ccc(OC)c(OC)c2)C1` (configuration not stated), the activity change, negative = inhibition was inconclusive: -56.1% [inhibitor]. In the case of `CCOC(=O)c1cccc(NC(=S)NC(=O)c2cccnc2)c1`, the Potency was “inactive”. With `CCSc1nnc(NC(=O)c2nc(S(=O)(=O)Cc3ccc(F)cc3)ncc2Cl)s1` the Potency was inconclusive: 39.8 µM [inhibitor, single point]. With `CCN1C(=O)[C@H]2[C@@H](c3ccc(-c4cccc(Cl)c4)c(OC)c3)N3CCC[C@@]3(C(=O)OC)[C@H]2C1=O` the Potency was inconclusive: 39.8 µM [inhibitor, single point]. For `COc1ccc(NC(=O)Cc2ccc(-c3ccccc3)cc2)cn1`, the Potency was inconclusive: 42.3 µM [inhibitor, single point]. In the case of `O=C1C=C(c2ccccc2)C[C@H](c2cccs2)[C@H]1n1nnc([N+](=O)[O-])n1`, the Potency was inconclusive: 22.4 µM [inhibitor, partial curve, poor fit].
